# Assay results as given in patent publication US20250361279A1 (Hoffmann-La Roche, published 2025).
# Like-named read-outs stand apart in the source and are kept apart here.
# T1: IL-7 receptor (IL-7R alpha chain and common gamma chain) on human T cells (human, UniProt P16871 21-459; P31785 23-369)
# T1 construct: whole, on cells; Endogenous receptor on CD4 and CD8 T cells of healthy donors; also called IL-7Rα; CD127
# T1 sequence (looked up) 1: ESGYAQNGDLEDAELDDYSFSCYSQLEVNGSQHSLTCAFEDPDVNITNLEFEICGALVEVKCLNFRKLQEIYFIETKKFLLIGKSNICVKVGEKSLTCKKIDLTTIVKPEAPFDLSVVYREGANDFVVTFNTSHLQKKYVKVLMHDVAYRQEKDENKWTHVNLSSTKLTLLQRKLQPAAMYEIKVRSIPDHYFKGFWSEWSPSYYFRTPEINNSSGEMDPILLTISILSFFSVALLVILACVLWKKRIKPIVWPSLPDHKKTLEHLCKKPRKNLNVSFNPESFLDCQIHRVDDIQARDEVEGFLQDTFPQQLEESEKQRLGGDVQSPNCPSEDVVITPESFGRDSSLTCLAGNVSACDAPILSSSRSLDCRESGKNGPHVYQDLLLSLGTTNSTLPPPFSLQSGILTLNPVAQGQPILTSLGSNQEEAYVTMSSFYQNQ
# T1 sequence (looked up) 2: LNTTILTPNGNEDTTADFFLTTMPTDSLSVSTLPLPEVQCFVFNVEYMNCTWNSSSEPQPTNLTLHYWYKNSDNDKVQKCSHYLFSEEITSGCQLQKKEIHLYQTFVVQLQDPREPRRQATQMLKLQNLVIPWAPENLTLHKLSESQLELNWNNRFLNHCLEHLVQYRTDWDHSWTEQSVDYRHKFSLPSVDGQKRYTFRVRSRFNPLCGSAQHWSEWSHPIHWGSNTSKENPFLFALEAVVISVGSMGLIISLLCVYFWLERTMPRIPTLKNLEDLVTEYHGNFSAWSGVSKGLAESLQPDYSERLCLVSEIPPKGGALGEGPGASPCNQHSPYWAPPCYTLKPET
# B1: P1AH4515 (PD1-IL7wt, fully glycosylated) (other)
# light: DIVMTQSPDSLAVSLGERATINCKASESVDTSDNSFIHWYQQKPGQSPKLLIYRSSTLESGVPDRFSGSGSGTDFTLTISSLQAEDVAVYYCQQNYDVPWTFGQGTKVEIKRTVAAPSVFIFPPSDEQLKSGTASVVCLLNNFYPREAKVQWKVDNALQSGNSQESVTEQDSKDSTYSLSSTLTLSKADYEKHKVYACEVTHQGLSSPVTKSFNRGEC
# heavy 1: EVQLLESGGGLVQPGGSLRLSCAASGFSFSSYTMSWVRQAPGKGLEWVATISGGGRDIYYPDSVKGRFTISRDNSKNTLYLQMNSLRAEDTAVYYCVLLTGRVYFALDSWGQGTLVTVSSASTKGPSVFPLAPSSKSTSGGTAALGCLVKDYFPEPVTVSWNSGALTSGVHTFPAVLQSSGLYSLSSVVTVPSSSLGTQTYICNVNHKPSNTKVDKKVEPKSCDKTHTCPPCPAPEAAGGPSVFLFPPKPKDTLMISRTPEVTCVVVDVSHEDPEVKFNWYVDGVEVHNAKTKPREEQYNSTYRVVSVLTVLHQDWLNGKEYKCKVSNKALGAPIEKTISKAKGQPREPQVCTLPPSRDELTKNQVSLSCAVKGFYPSDIAVEWESNGQPENNYKTTPPVLDSDGSFFLVSKLTVDKSRWQQGNVFSCSVMHEALHNHYTQKSLSLSPG
# heavy 2: EVQLLESGGGLVQPGGSLRLSCAASGFSFSSYTMSWVRQAPGKGLEWVATISGGGRDIYYPDSVKGRFTISRDNSKNTLYLQMNSLRAEDTAVYYCVLLTGRVYFALDSWGQGTLVTVSSASTKGPSVFPLAPSSKSTSGGTAALGCLVKDYFPEPVTVSWNSGALTSGVHTFPAVLQSSGLYSLSSVVTVPSSSLGTQTYICNVNHKPSNTKVDKKV[sequence of human IgG1 Fc with changes omitted]GGSGGGGSGGGGSGGDCDIEGKDGKQYESVLMVSIDQLLDSMKEIGSNCLNNEFNFFKRHICDANKEGMFLFRAARKLRQFLKMNSTGDFDLHLLKVSEGTTILLNCTGQVKGRKPAALGEAQPTKSLEENKSLKEQKKLNDLCFLKRLLQEIKTCWNKILMGTKEH
# notes: Immunoconjugate: anti-PD-1 IgG1 (FV000363), knob-into-hole, PGLALA; human IL-7 wild-type fused to the C-terminus of the knob heavy chain; also called P1AH4515-005; P1AH4515-007
# Assays:
# [1] = target: T1, IL-7 receptor (IL-7R alpha chain and …); assay: flow cytometry, fresh PBMCs, bystander (PD-1- TCF-1-) CD8 T cells; set-up: unit not given beside the values
# [2] = target: T1, IL-7 receptor (IL-7R alpha chain and …); assay: flow cytometry, fresh PBMCs, bystander (PD-1- TCF-1-) CD4 T cells; set-up: unit not given beside the values
# [3] = target: T1, IL-7 receptor (IL-7R alpha chain and …); assay: flow cytometry, fresh PBMCs, naive (TCF-1+ PD-1-) CD8 T cells; set-up: unit not given beside the values
# [4] = target: T1, IL-7 receptor (IL-7R alpha chain and …); assay: cell-based or functional assay
# [5] = target: T2, human PD-1 on activated CD4 T cells (human, UniProt Q15116 25-288); assay: cell-based or functional assay
# [6] = target: T1, IL-7 receptor (IL-7R alpha chain and …); assay: flow cytometry, fresh PBMCs, naive (TCF-1+ PD-1-) CD4 T cells; set-up: unit not given beside the values
# [7] = target: T1, IL-7 receptor (IL-7R alpha chain and …); assay: cell-based or functional assay; remark: listed apart in the source
# [8] = target: T2, human PD-1 on activated CD4 T cells; assay: cell-based or functional assay; remark: listed apart in the source
# [9] = target: T1, IL-7 receptor (IL-7R alpha chain and …); assay: cell-based or functional assay; remark: listed apart in the source
# [10] = target: T2, human PD-1 on activated CD4 T cells; assay: cell-based or functional assay; remark: listed apart in the source
# [11] = target: T1, IL-7 receptor (IL-7R alpha chain and …); assay: flow cytometry, fresh PBMCs, naive (TCF-1+ PD-1-) CD8 T cells
# [12] = target: T1, IL-7 receptor (IL-7R alpha chain and …); assay: cell-based or functional assay; remark: listed apart in the source
# [13] = target: T1, IL-7 receptor (IL-7R alpha chain and …); assay: cell-based or functional assay; remark: listed apart in the source
# [14] = target: T2, human PD-1 on activated CD4 T cells; assay: cell-based or functional assay; remark: listed apart in the source
# [15] = target: T1, IL-7 receptor (IL-7R alpha chain and …); assay: cell-based or functional assay; remark: listed apart in the source
# [16] = target: T1, IL-7 receptor (IL-7R alpha chain and …); assay: flow cytometry, fresh PBMCs, bystander (PD-1- TCF-1-) CD4 T cells
# [17] = target: T1, IL-7 receptor (IL-7R alpha chain and …); assay: cell-based or functional assay; remark: listed apart in the source
# [18] = target: T2, human PD-1 on activated CD4 T cells; assay: cell-based or functional assay; remark: listed apart in the source
# [19] = target: T1, IL-7 receptor (IL-7R alpha chain and …); assay: flow cytometry, fresh PBMCs, bystander (PD-1- TCF-1-) CD8 T cells
# [20] = target: T1, IL-7 receptor (IL-7R alpha chain and …); assay: flow cytometry, fresh PBMCs, naive (TCF-1+ PD-1-) CD4 T cells
binder,measurement,setting,value
B1,AUC of dose-response binding (frequency of anti-PGLALA+ cells),[1],191
same,AUC of dose-response binding (frequency of anti-PGLALA+ cells),[2],162
same,AUC of dose-response binding (frequency of anti-PGLALA+ cells),[3],259
same,Potency reduction to PD1-IL7wt: EC50 (PD1+)/EC50 (PD1-IL7wt),[4],1 fold
same,"Cis-delivery: fold increase in EC50, EC50 [with PD1bl]/EC50 [no PD1bl]",[5],2 fold
same,AUC of dose-response binding (frequency of anti-PGLALA+ cells),[6],253
same,Potency reduction to PD1-IL7wt: EC50 (PD1+)/EC50 (PD1-IL7wt),[7],1 fold
same,"STAT-5P AUC, PD1+ CD4 T cells",[7],173
same,"STAT-5P AUC, PD1-blocked CD4 T cells",[7],143
same,"Cis-delivery: fold increase in EC50, EC50 [with PD1bl]/EC50 [no PD1bl]",[8],1.3 fold
same,Delta AUC (PD1+ vs PD1bl.),[8],30.5
same,Potency reduction to PD1-IL7wt: EC50 (PD1+)/EC50 (PD1-IL7wt),[9],1 fold
same,"STAT-5P AUC, PD1+ CD4 T cells",[9],139
same,"STAT-5P AUC, PD1-blocked CD4 T cells",[9],110
same,"Cis-delivery: fold increase in EC50, EC50 [with PD1bl]/EC50 [no PD1bl]",[10],2.4 fold
same,Delta AUC (PD1+ vs PD1bl.),[10],29
same,fold reduction in binding compared to P1AF7303,[11],1.53 fold
same,"Percentage of rescued Granzyme B production by Tconv (Treg suppression assay, 6 nM)",[12],238%
same,"Percentage of suppressed Granzyme B production by Tconv (Treg suppression assay, 6 nM)",[12],-138%
same,Potency reduction to PD1-IL7wt: EC50 (PD1+)/EC50 (PD1-IL7wt),[13],1 fold
same,"STAT-5P AUC, PD1+ CD4 T cells",[13],157
same,"STAT-5P AUC, PD1-blocked CD4 T cells",[13],125
same,"Cis-delivery: fold increase in EC50, EC50 [with PD1bl]/EC50 [no PD1bl]",[14],1.5 fold
same,Delta AUC (PD1+ vs PD1bl.),[14],32
same,EC50[active]/EC50 [active PD1-IL7wt],[15],1 fold
same,EC50[fresh]/EC50 [fresh PD1-IL7wt],[15],1 fold
same,fold reduction in binding compared to P1AF7303,[16],1.79 fold
same,Potency reduction to PD1-IL7wt: EC50 (PD1+)/EC50 (PD1-IL7wt),[17],1 fold
same,"STAT-5P AUC, PD1+ CD4 T cells",[17],141
same,"STAT-5P AUC, PD1-blocked CD4 T cells",[17],109
same,"Cis-delivery: fold increase in EC50, EC50 [with PD1bl]/EC50 [no PD1bl]",[18],4.2 fold
same,Delta AUC (PD1+ vs PD1bl.),[18],32.2
same,fold reduction in binding compared to P1AF7303,[19],1.29 fold
same,fold reduction in binding compared to P1AF7303,[20],1.52 fold
